Target: T1, Abl tyrosine kinase (Abelson murine leukemia virus, UniProt P00521)
T1 sequence (P00521 128-379 limits assumed): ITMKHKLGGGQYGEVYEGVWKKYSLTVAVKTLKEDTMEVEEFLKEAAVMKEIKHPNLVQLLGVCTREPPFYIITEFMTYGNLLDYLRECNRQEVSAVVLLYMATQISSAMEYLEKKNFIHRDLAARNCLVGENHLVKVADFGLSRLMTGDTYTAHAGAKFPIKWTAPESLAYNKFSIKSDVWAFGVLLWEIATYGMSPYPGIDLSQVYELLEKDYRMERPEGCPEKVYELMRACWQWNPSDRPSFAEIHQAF
Assay: ATP binding to Abl-modified SiNW FET device (conductance)
Description: To develop a general system for screening small molecule inhibitors to tyrosine kinases the Abl kinase was linked to the surface of SiNW (silicon nanowire) FETs and investigated the binding of ATP and competitive inhibition of ATP binding with organic molecules (FIG. 4C). FIG. 4C illustrates the detection of ATP binding and small molecule inhibition of binding using a SiNW sensor device. The tyrosine kinase Abl was covalently linked to the surface of a SiNW and then the conductance of the nanowire device was monitored to detect ATP binding and the competitive inhibition of ATP binding by Gleevec. In this way, it was possible to monitor in real-time the binding or inhibition of binding of the negatively charged ATP to Abl as a conductance change due to chemical gating.
SiNW FETs were prepared using procedures similar to those described above. […] The Abl protein was covalently-linked through lysine residues to SiNW FETs within an integrated microfluidic channel, washed with buffer and used without further modification or dehydration. […]
Regions 91, 92 and 93 correspond to 0.1, 3, and 20 nM ATP, respectively. […] The conductance of SiNW FETs was recorded using lock-in amplifier at 31 Hz and 30 mV modulation amplitude; the dc-bias voltage was zero. […]

`Nc1ncnc2c1ncn2[C@@H]1O[C@H](COP(=O)(O)OP(=O)(O)OP(=O)(O)O)[C@@H](O)[C@H]1O` [ATP, adenosine triphosphate] was tested, and the “lowest ATP concentration at which binding to Abl is distinguished above background” value (Abl-modified SiNW device) was ≤ 100 pM and the Kd (estimated from the linear response region of delta-G vs. ATP concentration, Abl-modified SiNW, read-out: ATP binding constant) was ~100 nM.
